Reference: PubChem BioAssay AID938 (National Center for Advancing Translational Sciences (NCATS), 2007)
Among all 73,000 compounds or so, about 1,800 (2.5%) were called active. Inconclusive results, whose numbers are uncertain, are shown with a selection of clear calls. Calls follow the shape of the dose curve; as a rule, active = well fitted activation curve with a large enough effect; inconclusive = small, poorly fitted or top-dose-only effect; inactive = no such curve, though single readings can be large or run the other way. Potencies of inconclusive entries are left out as doubtful fits.

assay: qHTS Assay for Agonists of the Thyroid Stimulating Hormone Receptor: Activators of Intracellular cAMP Concentrations in Parental HEK 293; settings: parental HEK293 CNG cAMP sensor, membrane potential fluorescence; activation: at 57.1 µM (top of the series) unless noted; also: nearly all actives have a fitted effect of over 55% in size; as to activation: % of control where 0% means no effect
Method in brief: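 Parental HEK 293 cells stably expressing a modified CNG channel (no TSHR) report cAMP rise as membrane depolarization. Membrane potential dye with 100 uM RO 20-1724 was loaded for 60 min at room temperature, then compound added for 30 min; fluorescence read at 590 nm.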
Potency is read from the fitted curve at half-maximal effect; tags tell the direction and shape of the fitted curve.

Compound	activation	Potency
NC(=O)c1ccccc1-c1nc(-c2ccccc2)no1	inactive: -2.75%	
CC1CCC(NC(=O)c2ccc(N3CCCC3=O)cc2)CC1 (stereo not drawn)		inconclusive [activator, single point]
COc1ccc2c(c1)c(=O)oc1cc(OCC(=O)N3CCCC(C)C3)ccc12 (stereo not drawn)		active: 31.6 µM
Fc1ccc(CSc2nnc(-c3cccs3)o2)cc1		inconclusive [activator, full curve, poor fit]
CCCCOC(=O)c1cc(=O)[nH]c2ccccc12		inconclusive [activator, single point]
CCN1C(=O)[C@H]2[C@H]3[C@H](O)[C@H](O)C/C(=N/O[C@@H](C)c4cn([C@H]5COC[C@H]5O)nn4)[C@@H]3CC[C@@H]2C1=O	inactive: -6.13% [at 11.4 µM]	
Cc1nc(N2CCN(c3ccccc3)CC2)nc2c1C(=O)CC(c1ccccc1)C2 (stereo not drawn)		inconclusive [activator, partial curve]
COc1cc(C)nc(N(Cc2ccccc2)S(=O)(=O)c2ccccc2)n1		inconclusive [activator, single point]
Cc1nnc(SCCn2c(N3CCN(c4ccccc4)CC3)nc3c2c(=O)n(C)c(=O)n3C)s1		inconclusive [activator, single point]
Cc1ccc2c(c1)c1c(n2CC2COC(C)(C)O2)C(=O)CCC1 (stereo not drawn)		inconclusive [activator, single point]
COCCn1c(=O)c(-c2cccs2)nc2cnc(N(C)C)nc21	inactive: 1.28%	
CCOC(=O)C1=C(N)Oc2c(oc(CO)cc2=O)C1c1c(F)cccc1Cl (stereo not drawn)		inconclusive [activator, partial curve]
CCOc1ccccc1CN(Cc1ccco1)S(=O)(=O)c1ccc(-n2cnnn2)c(OC)c1		active: 10 µM
COc1ccc(NC(=O)C2=C(C)C(=O)OC23CCC(C)CC3)c(OC)c1 (stereo not drawn)		inconclusive [activator, single point]
COc1ccc(-c2cc(CCCC(=O)NCCc3ccc(OC)cc3OC)no2)cc1		inconclusive [activator, single point]
COC(=O)CCC(=O)N1CCc2cc(S(=O)(=O)N3CCN(c4ccccc4Cl)CC3)ccc21		inconclusive [activator, partial curve]
O=C(CN(Cc1ccco1)C(=O)CNS(=O)(=O)c1ccccc1)NCc1ccc(F)cc1		inconclusive [activator, partial curve]
O=C(CSCc1ccccc1)Nc1nccs1		inconclusive [activator, single point]
